Data from a compilation of properties of binary mixtures (doi:10.1007/s10973-023-12194-1).
The densities may have been worked out from excess volumes.

Experiment: xn = mol fraction of the nth substance listed
Details: 101.3 kPa

For `CC[NH3+].O=[N+]([O-])[O-]` + O, the mass density (288.15 K, x2 = 0.574) was 1180.7 kg/m3, the mass density (293.15 K, x2 = 0.574) was 1177.5 kg/m3 and the mass density (298.15 K, x2 = 0.574) was 1174.2 kg/m3. It also gave a mass density (313.15 K, x2 = 0.574) of 1164.6 kg/m3, a mass density (318.15 K, x2 = 0.574) of 1161.4 kg/m3 and a mass density (323.15 K, x2 = 0.574) of 1158.2 kg/m3. For the same compound, the mass density (333.15 K, x2 = 0.574) was 1151.8 kg/m3, the mass density (338.15 K, x2 = 0.574) was 1148.6 kg/m3 and the mass density (348.15 K, x2 = 0.574) was 1142.1 kg/m3. For the same compound, the mass density (353.15 K, x2 = 0.574) was 1138.9 kg/m3, the mass density (358.15 K, x2 = 0.574) was 1135.7 kg/m3 and the mass density (363.15 K, x2 = 0.574) was 1132.5 kg/m3. For the same compound, the mass density (368.15 K, x2 = 0.574) was 1129.3 kg/m3 and the mass density (373.15 K, x2 = 0.574) was 1125.9 kg/m3.

Compound `CCCC[NH3+].O=[N+]([O-])[O-]` + O has a mass density (288.15 K, x2 = 0.435) of 1107.2 kg/m3, a mass density (318.15 K, x2 = 0.435) of 1088.3 kg/m3 and a mass density (323.15 K, x2 = 0.435) of 1085.2 kg/m3. The mass density (328.15 K, x2 = 0.435) was 1082.1 kg/m3, the mass density (333.15 K, x2 = 0.435) was 1079 kg/m3 and the mass density (338.15 K, x2 = 0.435) was 1075.9 kg/m3. For the same compound, the mass density (343.15 K, x2 = 0.435) was 1072.8 kg/m3, the mass density (348.15 K, x2 = 0.435) was 1069.7 kg/m3 and the mass density (353.15 K, x2 = 0.435) was 1066.6 kg/m3. The mass density (358.15 K, x2 = 0.435) was 1063.5 kg/m3, the mass density (363.15 K, x2 = 0.435) was 1060.5 kg/m3 and the mass density (368.15 K, x2 = 0.435) was 1057.4 kg/m3. For the same compound, the mass density (373.15 K, x2 = 0.435) was 1054.4 kg/m3.
